This passage reports self-cleavage results from the RNAGym collection of RNA variant scans (doi:10.7554/elife.90254).

The chains are these.
B1: OR4K15 (parent)
chain: GUUAACGGUCAUAGGCCAUGGAAACUAGGAGCACCAUUUCGCUGCCAGUGAAGAAAUGAACAAAGAAAAUCUGGGCCAGGCAGGCAUCAAAAGAAAUAGUCUUGCGCUCAACCAGAAAGUCUGUAAUCAUUUUAAGGGUA

The source gives no read counts; variants with many changes may rest on few reads.

This data set covers variants of B1. Briefly: self-cleavage, relative activity (ratio to wild type); higher = more cleavage; in vitro, sequencing; the parent is a self-cleaving ribozyme.
Consider U97G A110G U130C, for which the self-cleavage turned out to be 0.07.
For A91G A96G A110U, the self-cleavage was determined as 0.94.
For A98G A111U U120C, the self-cleavage came out at 0.
Regarding U103C A116G A129U, the self-cleavage stood at 0.47.
On to A114G A129C U131C, for which the self-cleavage came to 0.15.
On to U100C A111G A117G, for which the self-cleavage amounted to 0.01.
Consider U102C A116G U122C, for which the self-cleavage turned out to be 0.42.
On to A94C U108C C113A, for which the self-cleavage turned out to be 0.
The same measure for U103C A111G A114G: 0.01; for U103C A110G A118G A129G U131C: 0.03.
For U100C A117G U132C, the self-cleavage worked out at 1.74.
On to A94G U97C A117G, for which the self-cleavage turned out to be 1.44.
Take U108C U130C U139C: the self-cleavage turned out to be 0.
In the case of A91G U102C U108C, the self-cleavage was found to be 0.
Turning to U103C U108C U124A, the self-cleavage worked out at 0.
With G106U G123A U127C, the self-cleavage turned out to be 0.
Consider U102C U120G U130C, for which the self-cleavage worked out at 2.27.
With A92U U108C U120C A129G, the self-cleavage came out at 0.
Consider U100C U103C A110G, for which the self-cleavage came out at 0.11.
For C105U A118G U139C, the self-cleavage was 0.14.
As to U102C A114U U132C A135G, the self-cleavage was 0.06.
A94G U102A U132A: the self-cleavage is 0.35.
A92G U122C U124G U132C: the self-cleavage was found to be 0.17.
For the variant A94G C107U U130C, the self-cleavage worked out at 0.02.
With U102C A118U U132C, the self-cleavage was 0.59.
On to A95G U100A A114G A135G, for which the self-cleavage was 0.19.
Consider A96G A98G U103C, for which the self-cleavage amounted to 0.18.
With A94U U103A A129G, the self-cleavage is 0.32.
A98G U108C U131C: the self-cleavage was 0.01.
Take A111G A116G A125U: the self-cleavage turned out to be 0.01.
Turning to U103C A110G U132C, the self-cleavage is 0.09.
For A91G U102C A118G A129G, the self-cleavage is 1.09.
The result for A94G C113U U130G reads 0.01.
For the variant A114G U127C U131C, the self-cleavage was 0.13.
In the case of U108C A114G A125G, the self-cleavage came out at 0.
Regarding A94G A116G U127A, the self-cleavage came to 0.75.
With C105A A116G U120A U130A, the self-cleavage came out at 0.02.
A96G U103C A135G: the self-cleavage turned out to be 0.92.
The result for A92G U103C U120C reads 0.3; that for U108C A117G A126G, 0.01.
On to A91C U102C A116G, for which the self-cleavage came to 0.78.
For A91G U132C A140G, the self-cleavage is 0.97.
For the variant A91G C105U A111G, the self-cleavage is 0.
Take A96C A116G A118G: the self-cleavage came to 0.04.
In the case of U102C U131C U139A, the self-cleavage amounted to 0.94.
Turning to A118G U122C A129G U130C, the self-cleavage turned out to be 0.28.
Take U103C G106A A118U A126G: the self-cleavage turned out to be 0.
On to A91C A96G A114G, for which the self-cleavage is 0.64.
With U97C A110G A111G, the self-cleavage was 0.04.
For U103C A111G A140G, the self-cleavage is 0.
For the variant A91G U103C U120C, the self-cleavage is 0.13.
For the variant A94G A126G U130C, the self-cleavage amounted to 0.53.
Regarding A91U A111G U131C, the self-cleavage was 0.01.
The result for A92G A95U G138U reads 2.18; that for U97C U102A C109A, 0.19.
In the case of A118U U122C U127C, the self-cleavage was 0.33.
The result for A95G A116U U139A reads 0.87; that for U100C U103C A110G A117G G123A, 0.1; that for A96G A118G U122C, 0.8.
As to U97C U102C U120G, the self-cleavage was 1.93.
Consider A92G A95G U130C, for which the self-cleavage is 0.7.
Regarding A114G U124G U132C, the self-cleavage came to 0.08.
U108C A114U U130C: the self-cleavage was found to be 0.01.
Regarding A96G U108C A111G, the self-cleavage was found to be 0.01.
With U103C A118G U132A A134G, the self-cleavage was 0.19.
Regarding A94G U102C U131C, the self-cleavage turned out to be 2.07.
As to A92G C113U A114U, the self-cleavage was found to be 0.01.
As to A118G U120C G137A, the self-cleavage was 0.62.
For A117G A126G U139C, the self-cleavage came out at 1.16.
With A94G A117G U122C, the self-cleavage amounted to 1.59.
The same measure for A96G U97C A117G: 1.06; for A110G A117U U120C: 0.03; for A110G A111G U132C: 0.01.
As to A91G A129U U132A, the self-cleavage worked out at 0.51.
The result for A96G U130C U132C reads 2.23.
As for U108C A110G G136A, the self-cleavage stood at 0.01.
For A96G U102A U103C, the self-cleavage was found to be 0.18.
With U97A A117G U130C, the self-cleavage is 1.11.
In the case of A96G U103C A126G U127A, the self-cleavage came out at 0.63.
Turning to A91G C121A A135U, the self-cleavage was found to be 2.47.
The same measure for A92G U100C U124A: 1.1; for A96G U122C U130C U131C: 0.74; for U102C A117G U139G: 2.69.
A91G U100C U127C: the self-cleavage was 1.31.
The same measure for A94U U122C U131C: 0.84; for U102C A111G U127C: 0.
As to A95G A117U U124C, the self-cleavage was found to be 1.31.
For the variant A94U U100A A129U, the self-cleavage amounted to 0.08.
The result for U102C A116G A118G reads 0.4; that for A94G A118G U132C, 0.95.
The same measure for A96G U102C U122A: 2.73; for A90U U108C U131C: 0.
The same measure for A118G U130C U132C: 0.5; for A110U A118G C121A: 1.19.
For U100C U102C U132C A140G, the self-cleavage came to 0.86.
With C109U U122C U127C, the self-cleavage worked out at 0.29.
The same measure for A114G A118G U130C U131C: 0; for U108A C128A U131C: 0.01; for U103C U108C A140U: 0.
As to U97C A116G U139C, the self-cleavage stood at 0.56.
A96U U97C A98U: the self-cleavage worked out at 0.23.
In the case of A96G A117G A126G, the self-cleavage stood at 2.09.
Consider A111G A116U U124C U130C A135C, for which the self-cleavage was 0.
For A96G A118G A125G, the self-cleavage was determined as 1.88.
Turning to A91G C109U U124C, the self-cleavage came out at 0.02.
For A98G U122A G137U U139A, the self-cleavage is 0.35.
Regarding U97C A111U A134G, the self-cleavage turned out to be 0.06.
Regarding C105U A117G U122C, the self-cleavage stood at 0.01.
The same measure for A91G A94G A135U: 0.9; for A94U A110U A111G: 0.01; for U97C U102C U124C: 1.25.
A95G U133C G136A: the self-cleavage amounted to 2.49.
On to U102A A110G A135G, for which the self-cleavage stood at 0.02.
On to A91G U127C U130A, for which the self-cleavage is 0.58.
For the variant A94U U127A U131C A140G, the self-cleavage was found to be 2.51.
Regarding A90U C105G A126G, the self-cleavage was found to be 0.03.
A95G U102C A111G: the self-cleavage stood at 0.
On to A117G A126G U132C, for which the self-cleavage is 2.02.
As to A94U U103A A114G A118U, the self-cleavage came to 0.03.
Consider A92G A110C A118G A126G, for which the self-cleavage turned out to be 0.03.
The same measure for A94G A96G A126G U127C: 0.37; for A94G U100A U122A: 0.45; for U97C U127C A135U: 0.26.
As to A117G A129G U130C, the self-cleavage is 0.43.
For the variant U103C U108C A134G, the self-cleavage amounted to 0.01.
Regarding A94G A95U A134G, the self-cleavage was found to be 1.44.
Take A98G A117U U120C: the self-cleavage was 0.38.
For the variant A110U U122A C128U A129G, the self-cleavage came to 0.82.
With A110G A117G U131C, the self-cleavage stood at 0.11.
A96G U132G U139C: the self-cleavage came out at 1.26.
Consider A92G U132G A140G, for which the self-cleavage amounted to 1.2.
A94G U103C U108C: the self-cleavage turned out to be 0.03.
For A116G A118G U122C, the self-cleavage turned out to be 0.36.
The same measure for A94G A96G A111G: 0.01; for A91G U108A U122C G123U A126G A129G: 0; for U100C U103C A114U: 0.1.
For the variant U108C A114G A116U, the self-cleavage came out at 0.
With A96G A118U U131C, the self-cleavage amounted to 0.29.
The result for A111G U122A U131G reads 0.01; that for A114G U131C U132G, 0.11.
Take A92U U122A C128A: the self-cleavage is 1.1.
The same measure for A91G A96G A117G: 1.08.
In the case of A92G C105U U131C, the self-cleavage stood at 0.02.
For the variant U103C A118G U139C, the self-cleavage is 0.72.
Regarding A94G U127C A129G, the self-cleavage came out at 0.54.
As for A96U U100C A117G U127C, the self-cleavage was found to be 2.6.
The result for A111U A117G U127A A129G U130C U131C reads 0; that for A91G A118U U131C, 0.09; that for U102C U120C A126G, 0.84.
The same measure for A96G C121U U122A A135G: 1.6; for A92G G106U U124C: 0.01.
Consider U100C A111G U131C, for which the self-cleavage worked out at 0.01.
U100C U108C A135U: the self-cleavage came to 0.
With A91G U100C U102A, the self-cleavage worked out at 1.53.
As to U100C A110G A126G, the self-cleavage is 0.11.
For the variant A96G A111U A126G U139C, the self-cleavage was determined as 0.07.
U103C A111G A126G: the self-cleavage was determined as 0.
For the variant A91G A92G U100C, the self-cleavage stood at 1.82.
The result for U100C A116G U131C reads 1.37; that for U103C G123A A135G, 1.17; that for A111G U122C A134G, 0.
As for C105A U108A A114G, the self-cleavage is 0.04.
On to A92U A111U A114G, for which the self-cleavage was found to be 0.05.
The result for A91G A96G C101U U108A reads 0.01; that for A118G U122C A140G, 0.4.
Regarding A92U A118U U122C, the self-cleavage was 1.03.
With A111G U120C A140U, the self-cleavage was determined as 0.
